{"source": "PubChem BioAssay AID463173", "about": "(ICCB-Longwood Screening Facility, Harvard Medical School, 2010)", "note": "Hit rate of the full screen: of about 52,000 compounds, about 1,700 (3.3%) were called active. Cut-off read from the data, not from the text of the source: active = survival mostly below about 52% (no sharp cut-off); inactive = mostly above about 56%. The list shows a part of the results.", "data": [{"system": "Wild type", "test": "S. aureus survival, RN4220 and DeltatarO strains – OD600, teichoic acid synthesis inhibitors, primary screen (AID 463173)", "conditions": "S. aureus RN4220 wild type/DeltatarO growth, OD600, 18 h, hits give low values, screened at 18.75 µg/mL (by protocol)", "values": [{"smiles": "Cc1cc(OC(C)C(=O)Nc2sc3c(c2C(N)=O)CCCC3)ccc1Cl", "note": "(stereo not given)", "survival": "inactive: 82%"}, {"smiles": "CC(NC(=O)CN1C(=O)c2cccnc2Oc2ccc(Cl)cc21)c1ccccc1", "note": "(stereo not given)", "survival": "inactive: 74%"}, {"smiles": "COc1ccccc1NC(=O)CCN1CC(C)CC(C)C1", "note": "(stereo not given)", "survival": "inactive: 107%"}, {"smiles": "CCOc1ccccc1CNc1nc2nc(C)cc(C)n2n1", "survival": "inactive: 88%"}, {"smiles": "O=C(NCCCN1CCN(c2ccccc2)CC1)c1ccc2nc(Cc3ccccc3)oc2c1", "survival": "inactive: 79%"}, {"smiles": "Cc1ccc(Cn2c(C(C)NC(=O)c3ccccc3)nc3ccccc32)cc1", "note": "(stereo not given)", "survival": "inactive: 91%"}, {"smiles": "Nc1ccc(Oc2ccc(C(=O)O)c(C(=O)O)c2)cc1", "survival": "inactive: 106%"}, {"smiles": "CCOC(=O)c1c(C)[nH]c(CCC(=O)Nc2ccc(OC)c(OC)c2)c1C", "survival": "inactive: 65%"}, {"smiles": "Cc1noc(C)c1S(=O)(=O)N1CCC(C(=O)N2CCN(c3cccc(C(F)(F)F)c3)CC2)CC1", "survival": "inactive: 81%"}, {"smiles": "CC(C)NC(=O)CCC(=O)N1Cc2ccccc2Oc2ncccc21", "survival": "active: -2%"}, {"smiles": "Cn1ccc2cc(S(=O)(=O)N3CCN(C(=O)Nc4ccc(F)cc4F)CC3)ccc21", "survival": "inactive: 82%"}, {"smiles": "Cc1nc(N2CCCCC2)c(C#N)c2c1COC(C)(C)C2", "survival": "inactive: 111%"}, {"smiles": "CCC1CCCCN1C(=O)CSc1nc2c([nH]c3ccccc32)c(=O)n1-c1ccc(OC)cc1", "note": "(stereo not given)", "survival": "inactive: 19%"}, {"smiles": "C=Cn1c(=N)n(C)c2ccccc21", "survival": "inactive: 111%"}, {"smiles": "COc1ccc(C2CC(=O)c3cc(-c4nc(-c5ccc(Cl)cc5)cs4)c(=O)[nH]c3C2)cc1OC", "note": "(stereo not given)", "survival": "inactive: 103%"}, {"smiles": "CC1Cc2ccccc2N1S(=O)(=O)c1nnc(NC(=O)c2ccccc2)s1", "note": "(stereo not given)", "survival": "inactive: 18%"}, {"smiles": "COC(=O)c1nnn(CC(=O)NC(=O)Nc2c(C)cccc2C)c1C(=O)OC", "survival": "inactive: 65%"}, {"smiles": "CCn1cc2nc(SCC(=O)Nc3ccccc3C(F)(F)F)n(Cc3ccc(C)cc3)c(=O)c2n1", "survival": "inactive: 119%"}, {"smiles": "NS(=O)(=O)c1ccc(NC(=O)C2Cc3ccccc3N2C(=O)c2ccccc2)cc1", "note": "(stereo not given)", "survival": "inactive: 86%"}, {"smiles": "CCn1cc(C(=O)N2CCN(c3cccc(C)c3C)CC2)c2cc(OC)c(OC)cc2c1=O", "survival": "inactive: 150%"}, {"smiles": "Cc1ccccc1C(=O)n1nc(-c2cccnc2)nc1NCc1ccccc1", "survival": "inactive: 98%"}, {"smiles": "CCCCN(CC)CCCNC(=O)c1nn(C)c2c1CSc1ccccc1-2", "survival": "inactive: 100%"}, {"smiles": "COc1ccc(OC)c(CCNC(=O)Cn2ncc3c([nH]c4ccccc43)c2=O)c1", "survival": "inactive: 124%"}, {"smiles": "CC(C)Oc1ccc(-c2nc3c(C#N)c[nH]n3c2NC2CCCCC2)cc1", "survival": "inactive: 55%"}, {"smiles": "COc1ccc(N2CC(NC(=O)C(c3ccccc3)c3ccccc3)CC2=O)cc1OC", "note": "(stereo not given)", "survival": "inactive: 72%"}, {"smiles": "COCCCNC(=O)CCC(=O)NNc1nc2ccccc2c2nc(C)nn12", "survival": "inactive: 81%"}, {"smiles": "COc1ccccc1CNC(=O)c1ccc2nc(CCc3ccccc3)oc2c1", "survival": "inactive: 77%"}, {"smiles": "COc1ccc(-c2nc(SCC(=O)Nc3c(C)cc(C)cc3C)n[nH]2)cc1", "survival": "inactive: 78%"}, {"smiles": "COc1ccc(Cn2c(=O)c3cccnc3n(Cc3cccc(F)c3)c2=O)cc1", "survival": "inactive: 90%"}, {"smiles": "COc1cccc(-c2nc(S(=O)(=O)c3ccc(C)cc3)c(N3CCCCC3)o2)c1", "survival": "inactive: 45%"}, {"smiles": "COC(=O)c1ccc(C(=O)OC)c(NC(=O)c2ccc(-c3ccccc3)s2)c1", "survival": "inactive: 130%"}, {"smiles": "Cc1cccc(C)c1NC(=O)c1sc(-n2nc(C)c(Cc3ccccc3)c2C)nc1C", "survival": "inactive: 81%"}, {"smiles": "O=C(CSc1ncc(S(=O)(=O)c2ccc(Cl)cc2)c(=O)[nH]1)Nc1cccc(C(F)(F)F)c1", "survival": "inactive: 78%"}, {"smiles": "N#Cc1cc(C#N)c(SCC(N)=O)nc1N", "survival": "inactive: 106%"}, {"smiles": "Cc1cc(OCC(=O)N(Cc2ccc(N(C)C)cc2)CC2CCCO2)ccc1Cl", "note": "(stereo not given)", "survival": "inactive: 71%"}, {"smiles": "CCOC(=O)c1ccccc1NC(=O)CSc1nccn1Cc1ccco1", "survival": "inactive: 70%"}, {"smiles": "COc1ccccc1NC(=O)c1c(C)cc(C)nc1SCC(=O)c1ccc(Cl)cc1", "survival": "inactive: 105%"}, {"smiles": "CC(C)Oc1ccc(C(=O)N(Cc2ccco2)Cc2cccs2)cc1", "survival": "inactive: 70%"}, {"smiles": "COc1ccc(-c2cc3nc(C)c(CCC(=O)NC4CCCCC4)c(C)n3n2)c(OC)c1", "survival": "inactive: 70%"}, {"smiles": "COc1cc(C2Nc3c(C)cc(C)cc3-c3cc(C)nn32)cc(OC)c1O", "note": "(stereo not given)", "survival": "inactive: 97%"}, {"smiles": "O=C(c1cccn1-c1nnc(N2CCCC2)s1)N1CCN(c2ccc(Cl)cc2)CC1", "survival": "inactive: 45%"}, {"smiles": "CCCS(=O)(=O)NCCc1sc2nc(-c3ccc(F)cc3)nn2c1C", "survival": "inactive: 60%"}, {"smiles": "Cc1cc(C)n(-c2nnc(Nc3ccc(C)c(Cl)c3)c3ccccc23)n1", "survival": "inactive: 127%"}, {"smiles": "Cn1c(=O)[nH]c2cc(-c3noc(-c4ccc(C#N)cc4)n3)ccc21", "survival": "inactive: 70%"}, {"smiles": "Cc1ccc2c(c1)C(c1ccccc1)N(C(=O)Cc1ccc(F)cc1)CC(=O)N2", "note": "(stereo not given)", "survival": "inactive: 76%"}, {"smiles": "Cn1nnc(C(O)CN2CCOCC2)n1", "note": "(stereo not given)", "survival": "inactive: 114%"}, {"smiles": "COc1ccc(Cn2c(C(=O)O)c(CNCCc3cc(OC)ccc3OC)c3ccc(C)cc32)cc1", "survival": "inactive: 100%"}, {"smiles": "COc1ccc(C2=NC(C)(C)N(CC(=O)Nc3cccc(C)c3)C2=O)cc1", "survival": "inactive: 75%"}, {"smiles": "CN(C)C(=O)c1c(NC(=O)c2ccccc2F)sc2c1CCCC2", "survival": "inactive: 82%"}, {"smiles": "CC(=O)Nc1ccc(S(=O)(=O)NCC2CCC(C(=O)NCCN(CC(C)C)CC(C)C)CC2)cc1", "note": "(stereo not given)", "survival": "inactive: 55%"}, {"smiles": "Cc1ccc2[nH]c(=O)c(CNC3CCCC3)cc2c1", "survival": "inactive: 107%"}, {"smiles": "COc1ccccc1NC(=O)CSc1nc2ccccc2cc1C#N", "survival": "inactive: 113%"}, {"smiles": "Cc1ccc(S(=O)(=O)Nc2nc3n(n2)C(c2ccc(F)cc2)C=C(c2ccccc2)N3)cc1", "note": "(stereo not given)", "survival": "inactive: 33%"}, {"smiles": "CC1=C(C(=O)Nc2ccc(Cl)cc2)C(CC(C)C)n2nc(SCc3ccccc3C)nc2N1", "note": "(stereo not given)", "survival": "inactive: 129%"}, {"smiles": "O=C(COc1ccc2ccccc2c1)NC1CC(=O)N(c2cccc(F)c2)C1", "note": "(stereo not given)", "survival": "inactive: 121%"}, {"smiles": "COc1cc(C2C(=O)N(C3CCCCCC3)CC(=O)N2CCc2ccccc2)ccc1OC(C)C", "note": "(stereo not given)", "survival": "inactive: 87%"}, {"smiles": "Cc1ccc(C)c(-n2c(N)c(C#N)c3nc4ccccc4nc32)c1", "survival": "inactive: 149%"}, {"smiles": "COc1ccccc1CNS(=O)(=O)c1cnc(N)nc1", "survival": "inactive: 67%"}, {"smiles": "Cc1nc2ccn(Cc3ccco3)c(=O)c2cc1C(=O)NCc1ccccc1", "survival": "inactive: 71%"}, {"smiles": "COc1cccc(CNc2cc(C)nc3nc(-c4ccc(C)cc4)nn23)c1", "survival": "inactive: 72%"}, {"smiles": "O=C(NCC(c1ccco1)S(=O)(=O)c1cccs1)c1ccccc1F", "note": "(stereo not given)", "survival": "inactive: 80%"}, {"smiles": "Cc1ccc(N2CC(C)Cn3c2nc2c3c(=O)n(Cc3cccc(Cl)c3)c(=O)n2C)cc1", "note": "(stereo not given)", "survival": "inactive: 77%"}, {"smiles": "COc1ccc(NC(=O)c2oc3ccc(S(=O)(=O)N4CCOCC4)cc3c2C)cc1", "survival": "inactive: 136%"}, {"smiles": "CCCc1cc(=O)[nH]c2nnc(SCC)n12", "survival": "inactive: 74%"}, {"smiles": "O=c1oc2ccc3ccccc3c2cc1-c1nnc(Nc2ccc(F)cc2)s1", "survival": "inactive: 72%"}, {"smiles": "COc1ccc(C2c3c(n(C)c4ccccc34)C(=O)N2CC(=O)Nc2cccc(F)c2)cc1", "note": "(stereo not given)", "survival": "inactive: 85%"}, {"smiles": "Cc1ccc(-n2nc3c(=O)n(C(C)C(=O)NCc4ccco4)nc(C)c3c2C)cc1", "note": "(stereo not given)", "survival": "inactive: 60%"}, {"smiles": "Cc1ccc(Cl)cc1N1CCN(CCCNC(=O)c2ccc3nc(N4CCCCC4)sc3c2)CC1", "survival": "inactive: 45%"}, {"smiles": "O=C(NC1(C(F)(F)F)NC(=O)N(CCc2ccccc2)C1=O)c1ccc(Cl)cc1", "note": "(stereo not given)", "survival": "inactive: 82%"}, {"smiles": "CCn1ccc2c(OCC(=O)Nc3ccccc3C(F)(F)F)cccc2c1=O", "survival": "inactive: 80%"}, {"smiles": "Cn1c(=O)c2c(nc(Sc3nc4ccccc4n3CC(=O)N3CCCCC3)n2C)n(C)c1=O", "survival": "inactive: 106%"}, {"smiles": "Oc1c(C(c2ccccc2)N2CCC(O)CC2)sc2nc(-c3ccco3)nn12", "note": "(stereo not given)", "survival": "inactive: 73%"}, {"smiles": "COC(=O)CC1Oc2ccc(Cl)cc2-n2cc(-c3ccccc3)nc21", "note": "(stereo not given)", "survival": "inactive: 96%"}, {"smiles": "CN(C)S(=O)(=O)c1ccc(S(=O)(=O)N2CCC(O)CC2)cc1", "survival": "inactive: 103%"}, {"smiles": "CC1CC(C)CN(C(=O)CNCc2ccco2)C1", "note": "(stereo not given)", "survival": "inactive: 96%"}, {"smiles": "CCCCOc1cccc(C(=O)N(Cc2ccc(C)o2)c2ccccn2)c1", "survival": "inactive: 86%"}, {"smiles": "CCOc1ccc(CCNC(=O)c2cnc3sc(N4CCCC4)nn3c2=O)cc1", "survival": "inactive: 72%"}, {"smiles": "CC(=O)Nc1ccc(NC(=O)c2ccc3c(c2)N(Cc2cccc(Cl)c2)C(=O)c2ccccc2S3(=O)=O)cc1", "survival": "inactive: 168%"}, {"smiles": "CCOC(=O)C(C)Sc1ccc2nnc(CCNS(=O)(=O)c3ccccc3)n2n1", "note": "(stereo not given)", "survival": "inactive: 88%"}, {"smiles": "CCn1c(CN2CCCCC2)nc2cc(NC(=O)c3cc(OC)c(OC)c(OC)c3)ccc21", "survival": "inactive: 85%"}, {"smiles": "Cc1ccc(C)c(NC(=O)c2ccc(CN3CC(=O)N4CCCCC4C3=O)cc2)c1", "note": "(stereo not given)", "survival": "inactive: 53%"}, {"smiles": "CC1N=C2c3ccccc3N=C(SCC(=O)NCCc3ccccc3)N2C1=O", "note": "(stereo not given)", "survival": "inactive: 64%"}, {"smiles": "COc1ccc(Nc2c3c(nc4ccc(NC(=O)c5ccc(F)cc5)cc24)CCCC3)cc1OC", "survival": "inactive: 100%"}, {"smiles": "CN(Cc1ccccc1)C(=O)c1nc(-c2ccc(Cl)cc2)n2c1CCCCC2", "survival": "inactive: 70%"}, {"smiles": "O=C(Nc1cccc(Cl)c1Cl)c1ccc2c(c1)N(Cc1cccc(Cl)c1)C(=O)c1ccccc1S2(=O)=O", "survival": "inactive: 139%"}, {"smiles": "Cc1nc2nc(NCc3cccc(Br)c3)[nH]n2c(=O)c1Cc1ccccc1", "survival": "inactive: 68%"}, {"smiles": "COc1cc2ccccc2cc1C(=O)Nc1cccc(-c2nc3cc(C)c(C)cc3o2)c1C", "survival": "inactive: 77%"}, {"smiles": "COc1ccc2oc(=O)c(C(=O)NCCc3c(C)[nH]c4c(Cl)cccc34)cc2c1", "survival": "inactive: 98%"}, {"smiles": "CCc1ccccc1NC(=O)N1CCN(c2cc(-c3noc(C)n3)ccc2C)CC1", "survival": "inactive: 159%"}, {"smiles": "Cc1ccc(CN(C(=O)COc2cccc([N+](=O)[O-])c2)c2ccccn2)o1", "survival": "inactive: 78%"}]}]}
